The record followed here is patent publication US20210115142A1 (NANJING LEADS BIOLABS, published 2021).

Experiment [1] deals with T1, Human PD-1 protein (ACRObiosystems, Cat #PD1-H5221) (human, UniProt Q15116 in part).
T1 construct: Bought soluble protein
The experiment in a line: ELISA, human PD-1 coated at 25 ng/well, detection with HRP goat anti-human F(ab')2, OD450-620 [right panel]. Here is the method:
(§1) An ELISA assay was performed for determination of the relative binding capacity of the fusion proteins to human PD-1.
(§2) Human PD-1 protein (ACRObiosystems, Cat #PD1-H5221) was immobilized onto 96-well plates in PBS (Hyclone, Cat #SH30256.01) by incubation overnight at 4° C., 25 ng/well. The plates were then blocked by incubation with 1% BSA in PBS for one hour at 37° C. After blocking, the plates were washed three times with PBST (PBS containing 0.05% Tween 20). […] After binding, the plates were washed three times with PBST, incubated for one hour at 37° C. with peroxidase-labeled Goat anti-human F(ab′)² antibody (Jackson Immuno Research, Cat #109-035-097) diluted 1/20,000 in binding buffer, washed again, developed with TMB (ThermoFisher, Cat #34028) for 15 minutes, and then stopped with 1M H₂SO₄. Each plate well contained 50 μL of solution at each step.
A general note: ELISA stands for enzyme-linked immunosorbent assay.

The target in experiment [2] is T2, rat TGFβ1 (Novoprotein, Cat. CK33) (rat, UniProt P17246 in part, limits assumed).
T2 construct: Bought protein
T2 sequence (P17246 279-390 limits assumed): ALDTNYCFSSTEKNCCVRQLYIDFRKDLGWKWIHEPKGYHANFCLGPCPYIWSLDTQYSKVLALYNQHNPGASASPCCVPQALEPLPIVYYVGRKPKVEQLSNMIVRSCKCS
The experiment in a line: BLI (Octet RED96), Trap-15 on AHC biosensors, TGFβ1 in solution, 1:1 fit. From the text:
(§3) The association and dissociation curves were fit to a 1:1 Langmuir binding model using Octet evaluation software.
In general terms: In BLI a coated tip is dipped into the sample, and binding shifts an interference pattern.

Experiment [3] concerns the target T3, Human TGFβ1 protein (human, UniProt P01137 in part).
T3 construct: also called TGFβ1 protein (Sino, 10804-HNAC); Novoprotein Inc., Cat #CA59
The description is as above.
Description: as §3

Experiment [4] deals with T1, Human PD-1 protein (ACRObiosystems, Cat …). Kind of experiment: BLI (Octet RED96), Trap-15 on AHC biosensors, PD-1 in solution, 1:1 fit.
Description: as §3

In experiment [5] the target is T4, cynomolgus PD-1 (Acrobiosystems, Cat. #PD1-C5223) (cynomolgus, UniProt B0LAJ3 25-170).
T4 construct: Bought soluble protein; not shown: The vendor's tag on the bought protein (Acrobiosystems PD1-C5223, probably a C-terminal His tag)
T4 sequence (B0LAJ3 entry or part of it limits assumed): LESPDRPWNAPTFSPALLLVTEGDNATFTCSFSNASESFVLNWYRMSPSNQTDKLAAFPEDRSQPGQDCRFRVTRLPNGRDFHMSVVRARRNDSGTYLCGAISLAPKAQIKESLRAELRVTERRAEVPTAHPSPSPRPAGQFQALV
Described as above.
Description: as §3

The target in experiment [6] is T3, Human TGFβ1 protein. Kind of experiment: ELISA, human TGFβ1 coated at 10 ng/well, detection with HRP goat anti-human Fc, OD450-620 [right panel]. Here is the method: (§4) The plates were then blocked by incubation with 1% BSA in PBS for one hour at 37° C. After blocking, the plates were washed three times with PBST (PBS containing 0.05% Tween 20). […] After binding, the plates were washed three times with PBST, incubated for one hour at 37° C. with peroxidase-labeled Goat anti-human Fc antibody (Jackson Immuno Research, Cat #109-035-098) diluted 1/20,000 in binding buffer, washed again, developed with TMB (ThermoFisher Cat #34028) for 15 minutes, and then stopped with 1M H₂SO₄. The absorbance at 450 nm-620 nm was determined.
T3 sequence (P01137 279-390 limits assumed): as the sequence (P17246 279-390 limits assumed) above, with S75A counted along it

For experiment [7], the target named is human PD-1 on Jurkat-NFAT-PD-1 cells (human, UniProt Q15116 25-288). The experiment in a line: cell-based or functional assay.
The target in experiment [8] is T3, Human TGFβ1 protein. Kind of experiment: cell-based or functional assay.
Experiment [9] addresses T3, Human TGFβ1 protein. Kind of experiment: ELISA, human TGFβ1 coated at 10 ng/well, detection with HRP goat anti-human Fc, OD450-620 [left panel]. Here is the method: as §4
The target in experiment [10] is T1, Human PD-1 protein (ACRObiosystems, Cat …). Kind of experiment: ELISA, human PD-1 coated at 25 ng/well, detection with HRP goat anti-human F(ab')2, OD450-620 [left panel]. Here is the method:
as §1, §2

B1: Trap-15 (other)
heavy: QMQLVQSGAEVKKPGASVKLSCKASGYPFQSYYIHWVRQAPGQGLEWVGVINPSGGSTTYAQKFQGRVTMTRDTSISTAYMELSRLRSDDTVVYYCARGSYSSGWDYYYYYGMDVWGKGTLVTVSSASTKGPSVFPLAPSSKSTSGGTAALGCLVKDYFPEPVTVSWNSGALTSGVHTFPAVLQSSGLYSLSSVVTVPSSSLGTQTYICNVNHKPSNTKVDKKV[human IgG1 Fc with L234A L235A D265A P329A (EU numbers) skipped]AGGGGSGGGGSGGGGSGGGGSIPPHVQKSVNNDMIVTDNNGAVKFPQLCKFCDVRFSTCDNQKSCMSNCSITSICEKPQEVCVAVWRKNDENITLETVCHDPKLPYHDFILEDAASPKCIMKEKKKPGETFFMCSCSSDECNDNIIFSEEYNTSNPD
light: [about 120 residues skipped][about 100 residues skipped]
notes: Anti-PD-1 antibody with a TGFβRII extracellular domain linked by a (G4S)4 linker to the C-terminus of each heavy chain; Fc mutated to abolish ADCC and CDC; also called fusion protein Trap-15
Usually EC50 stands for the concentration giving half of the maximal effect. A lower EC50 goes with higher potency in that assay. For orientation: Kd means a measure of binding affinity in units of concentration. Lower therefore signals tighter binding. A word on the koff: it is the first-order rate constant of dissociation. A low value points to a long-lived complex. The kon is the second-order rate constant of association. For the molecule B1, the EC50 in [1] stood at 0.0799 nM; in [6], 0.112 nM. The Kd in [2] came out at 0.0719 nM; in [3], 0.136 nM; in experiment [4], 5.24 nM; in experiment [5], 9.66 nM. Further, the koff in experiment [2] amounted to 9.74e-05 s⁻¹; in experiment [3], 0.00019 s⁻¹; in [4], 0.000736 s⁻¹; in [5], 0.0012 s⁻¹. Also, the kon in experiment [2] was determined as 1.36e+06 M⁻¹ s⁻¹; in experiment [3] it was 1.4e+06 M⁻¹ s⁻¹; in experiment [4], 140000 M⁻¹ s⁻¹; in [5] it was 125000 M⁻¹ s⁻¹. In experiment [7], the “EC50, rise of NFAT luciferase signal in Jurkat-NFAT-PD-1 cells co-cultured with CHO-OKT3-PD-L1 cells” value came out at 0.157 nM. In addition, the “IC50, inhibition of TGFβ1-induced (1.2 ng/ml) luciferase signal in 293T/SBE-luc2P reporter cells” value in experiment [8] amounted to 0.00576 nM.

B2: Trap-13 (other)
heavy: QMQLVQSGAEVKKPGASVKLSCKASGYPFQSYYIHWVRQAPGQGLEWVGVINPSGGSTTYAQKFQGRVTMTRDTSISTAYMELSRLRSDDTVVYYCARGSYSSGWDYYYYYGMDVWGKGTLVTVSSASTKGPSVFPLAPSSKSTSGGTAALGCLVKDYFPEPVTVSWNSGALTSGVHTFPAVLQSSGLYSLSSVVTVPSSSLGTQTYICNVNHKPSNTKVDKKV[human IgG1 Fc with L234A L235A D265A P329A (EU numbers) skipped]ADKTHTCPPCPAPELLGGPSIPPHVQKSVNNDMIVTDNNGAVKFPQLCKFCDVRFSTCDNQKSCMSNCSITSICEKPQEVCVAVWRKNDENITLETVCHDPKLPYHDFILEDAASPKCIMKEKKKPGETFFMCSCSSDECNDNIIFSEEYNTSNPD
light: [about 120 residues skipped][about 100 residues skipped]
notes: Anti-PD-1 antibody with a TGFβRII extracellular domain linked by a linker to the C-terminus of each heavy chain; made in CHO-S cells, purified on Protein A; also called fusion protein Trap-13
As for B2, the EC50 was found to be 0.149 nM in experiment [9] and 0.0844 nM in [10].

B3: Trap-14 (other)
heavy: QMQLVQSGAEVKKPGASVKLSCKASGYPFQSYYIHWVRQAPGQGLEWVGVINPSGGSTTYAQKFQGRVTMTRDTSISTAYMELSRLRSDDTVVYYCARGSYSSGWDYYYYYGMDVWGKGTLVTVSSASTKGPSVFPLAPSSKSTSGGTAALGCLVKDYFPEPVTVSWNSGALTSGVHTFPAVLQSSGLYSLSSVVTVPSSSLGTQTYICNVNHKPSNTKVDKKV[human IgG1 Fc with L234A L235A D265A P329A (EU numbers) skipped]ASKYGPPCPPCGGPSIPPHVQKSVNNDMIVTDNNGAVKFPQLCKFCDVRFSTCDNQKSCMSNCSITSICEKPQEVCVAVWRKNDENITLETVCHDPKLPYHDFILEDAASPKCIMKEKKKPGETFFMCSCSSDECNDNIIFSEEYNTSNPD
light: [about 120 residues skipped][about 100 residues skipped]
notes: Anti-PD-1 antibody with a TGFβRII extracellular domain linked by a linker to the C-terminus of each heavy chain; also called fusion protein Trap-14
In the case of B3, the figures for the EC50 in experiment [10] and in [6] were 0.0681 nM and 0.167 nM, respectively.

B4: M7824 (other)
heavy: EVQLLESGGGLVQPGGSLRLSCAASGFTFSSYIMMWVRQAPGKGLEWVSSIYPSGGITFYADTVKGRFTISRDNSKNTLYLQMNSLRAEDTAVYYCARIKLGTVTTVDYWGQGTLVTVSSASTKGPSVFPLAPSSKSTSGGTAALGCLVKDYFPEPVTVSWNSGALTSGVHTFPAVLQSSGLYSLSSVVTVPSSSLGTQTYICNVNHKPSNTKVDKRV[human IgG1 Fc skipped]GGGGSGGGGSGGGGSGGGGSGIPPHVQKSVNNDMIVTDNNGAVKFPQLCKFCDVRFSTCDNQKSCMSNCSITSICEKPQEVCVAVWRKNDENITLETVCHDPKLPYHDFILEDAASPKCIMKEKKKPGETFFMCSCSSDECNDNIIFSEEYNTSNPD
light: QSALTQPASVSGSPGQSITISCTGTSSDVGGYNYVSWYQQHPGKAPKLMIYDVSNRPSGVSNRFSGSKSGNTASLTISGLQAEDEADYYCSSYTSSSTRVFGTGTKVTVLGQPKANPTVTLFPPSSEELQANKATLVCLISDFYPGAVTVAWKADGSPVKAGVETTKPSKQSNNKYAASSYLSLTPEQWKSHRSYSCQVTHEGSTVEKTVAPTECS
Take B4: the “IC50, inhibition of TGFβ1-induced (1.2 ng/ml) luciferase signal in 293T/SBE-luc2P reporter cells” value in experiment [8] was determined as 0.00543 nM.
